Consider 89 compounds from PMC4336329 (PLoS ONE, 2015).

The structures appear in SMILES notation. The whole screen tested about 310,000 compounds, of which about 2,200 (0.71%) showed an effect of 50% or more. The effect is printed as a negative number. The list shows a part of the results.

The target of this assay is human ether-à-go-go-related gene (hERG) potassium channel (human, UniProt Q12809). Kind of assay: primary screen, population patch clamp on CHO cells stably expressing hERG.
Chain of human ether-à-go-go-related gene (hERG) potassium channel (Q12809 whole entry, looked up): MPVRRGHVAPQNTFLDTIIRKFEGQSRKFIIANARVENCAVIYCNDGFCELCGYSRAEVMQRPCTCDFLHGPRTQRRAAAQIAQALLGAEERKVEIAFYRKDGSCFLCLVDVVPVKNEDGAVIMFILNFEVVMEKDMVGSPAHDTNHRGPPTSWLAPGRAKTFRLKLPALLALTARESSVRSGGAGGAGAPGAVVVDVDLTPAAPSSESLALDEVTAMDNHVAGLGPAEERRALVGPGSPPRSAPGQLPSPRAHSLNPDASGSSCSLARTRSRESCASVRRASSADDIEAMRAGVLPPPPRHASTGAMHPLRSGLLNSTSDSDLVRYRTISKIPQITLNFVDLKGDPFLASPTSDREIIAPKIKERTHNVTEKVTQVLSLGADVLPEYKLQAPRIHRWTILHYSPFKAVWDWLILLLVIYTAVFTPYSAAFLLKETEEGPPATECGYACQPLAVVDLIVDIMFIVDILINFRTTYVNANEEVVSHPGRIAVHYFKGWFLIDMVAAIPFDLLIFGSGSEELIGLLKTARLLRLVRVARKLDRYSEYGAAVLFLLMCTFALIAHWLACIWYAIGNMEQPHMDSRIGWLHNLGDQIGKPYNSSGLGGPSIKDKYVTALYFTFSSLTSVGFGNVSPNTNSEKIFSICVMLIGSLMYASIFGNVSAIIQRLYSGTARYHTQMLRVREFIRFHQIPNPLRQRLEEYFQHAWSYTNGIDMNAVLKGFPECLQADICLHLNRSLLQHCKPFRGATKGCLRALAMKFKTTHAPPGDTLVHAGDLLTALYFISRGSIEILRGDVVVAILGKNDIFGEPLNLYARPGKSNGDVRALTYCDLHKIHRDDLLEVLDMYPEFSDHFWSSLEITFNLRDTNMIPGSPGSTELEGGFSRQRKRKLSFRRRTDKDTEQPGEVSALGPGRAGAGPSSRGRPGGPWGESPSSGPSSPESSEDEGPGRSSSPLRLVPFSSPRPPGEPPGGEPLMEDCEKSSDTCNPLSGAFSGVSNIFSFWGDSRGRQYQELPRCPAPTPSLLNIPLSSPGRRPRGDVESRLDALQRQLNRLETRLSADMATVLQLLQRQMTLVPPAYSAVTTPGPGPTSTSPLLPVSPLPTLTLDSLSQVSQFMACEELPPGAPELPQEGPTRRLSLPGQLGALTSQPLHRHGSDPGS
For `Cc1ccc(S(=O)(=O)/N=C(\CN2CCCCC2)N2CCOCC2)cc1`, the “hERG current change (%, negative = inhibition) at 1uM” value was found to be 3.34%. In the case of `CCCCN(C(=O)c1ccc(S(=O)(=O)N2CCC(C)CC2)cc1)C1CCS(=O)(=O)C1` (centres unmarked) it was -6.52%; in that of `Cc1ccc2c(c1)C1CN(C)CCC1N2C(=O)COc1ccc(N(C)C(=O)C(C)(C)C)cc1` (centres unmarked), 10.5%; in that of `COc1ccc(NC(=O)CSc2nnc(C(C)C)n2N)cc1`, -7.02%. Regarding `Cc1ccc(-n2c3nc(=O)n(C)c(=O)c-3cc3ccccc32)cc1`, the “hERG current change (%, negative = inhibition) at 1uM” value is given as 18%. Then `C/C(=N\N1CCN(C)CC1)c1c(O)n(Cc2ccccc2)c(=O)[nH]c1=O`, with 3.02%. Then `Cl.NC(N)=NCCCc1cn(CC(=O)N2CCNCC2)nn1`, with 4.77%.

As for `CCCS(=O)(=O)NCCc1cc2ccc(OC)cc2[nH]c1=O`, the “hERG current change (%, negative = inhibition) at 1uM” value was determined as 10.9%.

As for `CN(C)CCNC(=O)C12CC3(C)CC(C)(CC(C)(C3)C1)C2.Cl`, the “hERG current change (%, negative = inhibition) at 1uM” value is reported as 9.83%.

Take `Cc1nc([N+](=O)[O-])cn1CC(=O)NCCCO`: the “hERG current change (%, negative = inhibition) at 1uM” value came out at 8.4%.

With `CCC(C)OC(=O)C1=C(C)O[C@]23OC(N)=C(C#N)[C@]12C(=O)c1ccccc13` (some centres unmarked), the “hERG current change (%, negative = inhibition) at 1uM” value is listed as 1.76%. In the case of `Cl.O=C1CSC(c2ccccc2F)N1CCN1CCCCC1` (centres unmarked), the “hERG current change (%, negative = inhibition) at 1uM” value is given as 1.03%. In the case of `COc1ccc(C(=O)N2N=C(c3ccc(NS(C)(=O)=O)cc3)CC2c2cccs2)cc1` (centres unmarked) it was 6.53%; in that of `CCOC(=O)N1CCN(C(=O)COc2ccc(Br)cc2)CC1`, -22.7%. In the case of `NC(=O)N1CCc2ccccc21` it was 5.88%. Then `COc1ccccc1N(CC(=O)NCCSCc1ccc(Cl)cc1)S(C)(=O)=O`, with -5.96%; and `O=C(NCc1cccnc1)c1cccs1`, with 6.35%. With `CCOC(=O)N1CCC(N2CCCC(CO)(Cc3cccc(Cl)c3)C2)CC1` (centres unmarked), the “hERG current change (%, negative = inhibition) at 1uM” value was -9.2%. Then `S=C(NCCc1ccccc1)Nc1cccc2cnccc12`, with 3.97%; and `Cc1ccc(C(=O)N2CCN(C)CC2)cc1S(=O)(=O)N1CCOCC1`, with 20%; and `CCCN(CC(=O)Nc1ccccc1C)C(=O)c1ccc(N2CCOCC2)c([N+](=O)[O-])c1`, with -24.4%. In the case of `CCCCn1c(N)c(N(CC)C(=O)c2cc(OC)cc(OC)c2)c(=O)[nH]c1=O` it was 1.56%. In the case of `Cn1c(=O)n(C)c2cc(S(=O)(=O)N3CCN(c4ccccc4)CC3)ccc21` it was -3.09%. In the case of `CCCCC1=NC2(CCCC2)C(=O)N1Cc1ccc(-c2ccccc2-c2nn[nH]n2)cc1`, the “hERG current change (%, negative = inhibition) at 1uM” value is given as 10.4%. `Cc1cccc(C(=O)Nc2ccccc2SCC2CSc3nc4ccccc4c(=O)n32)c1` (centres unmarked): the “hERG current change (%, negative = inhibition) at 1uM” value is given as -66.5%. As to `CC(=O)c1ccc(N2CCN(C(=O)c3ccco3)C(C)C2)c(F)c1` (centres unmarked), the “hERG current change (%, negative = inhibition) at 1uM” value is on record as -11.2%. In the case of `COc1ccc(NC(=O)CSc2nc3c(c(=O)n2-c2ccc(F)cc2)SCC3)cc1` it was 6.85%. Then `Cc1c(C(=O)NC(=S)Nc2ccc3c4c(cccc24)CC3)cccc1[N+](=O)[O-]`, with 9.1%; and `Cc1ccc(OC(C)C(=O)N(C)Cc2ccccc2)c([N+](=O)[O-])n1` (centres unmarked), with 6.03%. In the case of `O=C1OCCC1Sc1nc2ccccc2c(=O)n1Cc1ccc(F)cc1` (centres unmarked) it was -37.5%; in that of `Cl.N=c1ccn(Cc2cccc(Cl)c2)cc1`, 0.737%; in that of `CCC(=O)Nc1cc2c(cc1C(=O)c1ccccc1)OCCO2`, 4.89%. As to `C#CCN(C)[C@H](C)Cc1ccccc1.Cl`, the “hERG current change (%, negative = inhibition) at 1uM” value came to 10.3%.

In the case of `CCOc1ccc(CCNC(=O)COC(=O)CNS(=O)(=O)c2ccc(NC(C)=O)cc2)cc1OCC`, the “hERG current change (%, negative = inhibition) at 1uM” value is on record as 10.7%. Then `CSc1nncn1/N=C/c1cc(Cl)ccc1F`, with -0.963%. For the compound `COc1cccc(C2=CC(c3ccc(N(C)C)cc3)n3ncnc3N2)c1` (centres unmarked), the “hERG current change (%, negative = inhibition) at 1uM” value is 8.3%.

Turning to `O=C(COC(=O)c1ccc(OC(F)F)cc1)NCCC1=CCCCC1`, the “hERG current change (%, negative = inhibition) at 1uM” value came to 0.371%. Then `O=C(CCn1[nH]c(=O)c2ccccc2c1=O)N1CCOCC1`, with 23.2%. On to `O=C(COC(=O)c1c2c(nc3ccccc13)CCCC2)c1ccc(Br)s1`, for which the “hERG current change (%, negative = inhibition) at 1uM” value is given as 1.13%. Take `CN(C)c1cc(NC(=O)CNC(C)(C)CC(C)(C)C)c2ccccc2n1.O=C(O)C(=O)O`: the “hERG current change (%, negative = inhibition) at 1uM” value is -7.36%. Then `Cc1ccc(-c2nc(COC(=O)C3=NN(c4ccccc4)C(=O)CC3)cs2)cc1`, with 2.28%; and `O=[N+]([O-])c1cccc(-c2nnc3n2CCCCC3)c1`, with 11.6%. Then `CC(=O)/C(=N/Nc1ccccc1)N1CCOCC1`, with -10.6%; and `Nc1ccccc1SCC(O)Cn1ccc2ccccc21` (centres unmarked), with 15.5%.

Regarding `CC(=O)N1N=C(c2ccc(Br)cc2)OC1(C)CC(=O)Nc1ccccc1` (centres unmarked), the “hERG current change (%, negative = inhibition) at 1uM” value is on record as 13.8%. Then `CCOc1ccc(-c2cc(C)[n+](CCN(CC)CC)c(-c3ccc(OCC)cc3)c2)cc1.[O-][Cl+3]([O-])([O-])[O-]`, with -19.3%.

Consider `COC(=O)c1ccccc1NC(=O)C(=O)NCc1ccncc1`, for which the “hERG current change (%, negative = inhibition) at 1uM” value is 7.93%.

Consider `CCn1cc(C(=O)N2CCCC(CO)(Cc3ccccc3C)C2)cn1` (centres unmarked), for which the “hERG current change (%, negative = inhibition) at 1uM” value came to 13.1%. In the case of `O=C(NCCc1ccccc1)c1c(F)c(F)c(F)c(F)c1F` it was 0.342%; in that of `COc1ccc(C(=O)NC(=S)Nc2ccccc2N2CCN(S(C)(=O)=O)CC2)cc1OC`, 8.64%. In the case of `CCOc1ccccc1N1CCN(C(=O)CC(C)C)CC1` it was 9.86%; in that of `Cc1ccc(S(=O)(=O)c2cc3ccccc3oc2=Nc2ccc3c(c2)OCCO3)cc1`, 13.1%; in that of `Cc1nc2ncnn2c(N2CCCC(C(=O)Nc3ccc4c(c3)CCC4)C2)c1C` (centres unmarked), -25.2%. In the case of `CCC(=O)Nc1cc(C(=O)OC(C(=O)c2ccc(C)c(C)c2)c2ccccc2)ccc1C` (centres unmarked) it was -3.07%; in that of `O=C(Nc1csc([N+](=O)[O-])c1)Nc1ccccc1Cl`, 15.9%. As for `CC(C)N(C)C1CCN(S(=O)(=O)c2ccc(-c3ccc(=O)[nH]n3)s2)CC1`, the “hERG current change (%, negative = inhibition) at 1uM” value turned out to be 1.75%. In the case of `Cc1cccc(/C=N/n2c(-c3ccncc3)n[nH]c2=S)c1` it was 11.9%. Then `COC(=O)c1cc(S(=O)(=O)N2CCN(c3ccc(C(C)=O)cc3)CC2)c[nH]1`, with 11.7%. In the case of `O=C(O)CCC(=O)Nc1ccc(-c2csc(Nc3cccc4ccccc34)n2)cc1` it was 8.86%. Consider `Cl.c1ccc(COc2ccccc2CNCc2cccnc2)cc1`, for which the “hERG current change (%, negative = inhibition) at 1uM” value was -0.0032%. In the case of `CC(C)CCNC(=O)CN(C(=O)CCC(=O)Nc1ccccn1)c1ccc(F)c(Cl)c1`, the “hERG current change (%, negative = inhibition) at 1uM” value stood at 11.2%. Then `CS(=O)(=O)N(Cc1ccccc1)c1ccc(C(=O)NCC2CCCO2)cc1` (centres unmarked), with 12.9%; and `CCn1c(SCC(=O)N2CCc3ccccc32)nnc1-c1c[nH]c2ccccc12`, with 6.41%.

Regarding `Cc1cc(N2C(=O)C3C4CCC(C4)C3C2=O)no1` (centres unmarked), the “hERG current change (%, negative = inhibition) at 1uM” value came out at 16%. In the case of `COc1cc2c(cc1OC)C(c1ccc(C)cc1)NC(=O)C2` (centres unmarked) it was 17.6%; in that of `Cc1nn(-c2ccc(F)cc2)c(Cl)c1/C=N/NC(=O)c1cccs1`, 15.3%. Then `CC1(C)c2ccccc2N(CC(N)=O)C12C=Cc1ccccc1O2` (centres unmarked), with 11.7%; and `CC(C)c1ccc2[nH]c3c(c2c1)CCC/C3=N\NC(=O)c1ccncc1`, with 9.68%; and `CN1CCN(C2=C(NS(=O)(=O)c3cccs3)C(=O)c3ccccc3C2=O)CC1`, with 9.07%. In the case of `COc1cc([N+](=O)[O-])cc([N+](=O)[O-])c1NC(=O)N1CCOCC1` it was 10%; in that of `O=C(Cn1cc([N+](=O)[O-])cn1)N1N=C(C(F)F)CC1(O)C(F)F` (centres unmarked), 0.595%; in that of `CC1(C)Cc2c(c(N3CCOCC3)nc3sc4c(NN)ncnc4c23)CS1`, -6.64%. On to `c1ccc(Sc2ncccn2)nc1`, for which the “hERG current change (%, negative = inhibition) at 1uM” value is recorded as 13.2%. Then `CCCCn1c(N)c(N(CCC(C)C)C(=O)CCCc2nc3ccccc3s2)c(=O)[nH]c1=O`, with 10.2%; and `COc1cc2[nH]c(=O)n(CCCCCC(=O)N3CCN(c4ccccn4)CC3)c(=O)c2cc1OC`, with 15%; and `COc1cc(NC(=O)NC2Cc3ccccc3C2)cc(OC)c1`, with 7.68%. As to `Cc1ccc(C(=O)N/C(=C\c2cccs2)C(=O)NCCc2c[nH]c3ccccc23)cc1`, the “hERG current change (%, negative = inhibition) at 1uM” value was 6.41%.

Turning to `COCCOC(=O)C1=C(N)OC2=C(C(=O)CCC2)C1c1cccnc1` (centres unmarked), the “hERG current change (%, negative = inhibition) at 1uM” value stood at 2.79%. For `COC(=O)Cn1c(N)[n+](Cc2ccccc2)c2ccccc21.[Br-]`, the “hERG current change (%, negative = inhibition) at 1uM” value came out at 2.27%. In the case of `CC(/C=C/c1ccco1)=N\NC(=O)c1cc(Cl)ccc1O`, the “hERG current change (%, negative = inhibition) at 1uM” value is reported as 18.3%.

With `COc1ccc(-c2cc(C(F)(F)F)nc(-n3ccnc3C)n2)cc1`, the “hERG current change (%, negative = inhibition) at 1uM” value is given as 6.23%. Then `Nc1nc(Nc2cccc(C(F)(F)F)c2)nc(C(F)(F)F)n1`, with 5.02%; and `Oc1[nH]c2ccccc2c1C1=NCCCCC1`, with 3.28%.

As to `O=[N+]([O-])c1cccc(/C=N/Nc2nc(N3CCCCC3)nc(N3CCCCC3)n2)c1`, the “hERG current change (%, negative = inhibition) at 1uM” value was 4.19%. In the case of `CCCOc1c(Br)cc(/C=N/O)cc1OC` it was 15.2%. Then `CCN(CC)S(=O)(=O)c1c(OC)cc(C)c(Cl)c1C`, with 4.24%; and `CCN1CCN(/C=N/c2nc(C)cs2)CC1`, with 7.85%; and `COc1ccc(-c2csc(NC(=S)NC(=O)c3cc4ccccc4o3)n2)cc1Br`, with 13%. Consider `CCOc1ccc2[nH]c(=O)c(CN(Cc3ccc(F)cc3)C(=O)N3CCCC3)cc2c1`, for which the “hERG current change (%, negative = inhibition) at 1uM” value amounted to 9.7%.
